Reference: PubChem BioAssay AID686978 (National Center for Advancing Translational Sciences (NCATS), 2013)
Hit rate of the full screen: of about 420,000 compounds, about 64,000 (15%) were called active. Inconclusive results, whose numbers are uncertain, are shown with a selection of clear calls. The call rests on the fitted dose curve; in most records, active means well fitted inhibition curve with a large enough effect; inconclusive means small, poorly fitted or top-dose-only effect; inactive means flat fitted curve, though single readings scatter. No potency is given beside an inconclusive call; the fits are too rough.

experiment: qHTS for Inhibitors of human tyrosyl-DNA phosphodiesterase 1 (TDP1): qHTS in cells in absence of CPT; conditions: DT40 Tdp1-/- hTDP1 cells, no CPT, ATP luminescence, 48 h; activity change, negative = growth inhibition: at 46.2 µM (top of the series) unless noted; further: nearly all actives have a fitted effect of over 55% in size
In short: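 Growth kinetics read by CellTiter-Glo luminescence after ≥48 hr at 37 °C. Cells: DT40 Tdp1-/- stably carrying human TDP1, 400 per well, compound exposure in the absence of CPT (DMSO vehicle).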
On the % scale 0 is the no-effect control and ±100 the full control effect; potency means the concentration at half of the fitted maximal effect; tags describe the fitted curve by direction and shape.

Row | SMILES | Potency | activity change, negative = growth inhibition
1 | O=C(NC(Nc1nc2ccc([N+](=O)[O-])cc2s1)(C(F)(F)F)C(F)(F)F)c1ccccc1 | active: 0.461 µM | –
2 | CCC(C)c1ccccc1OCCOCCN1CCCC1 (stereo unspecified) | inconclusive [inhibitor, single point] | –
3 | Nc1c(-c2ccccc2)c(CSc2nc3ccccc3[nH]2)nn1-c1cccc(Cl)c1 | inconclusive [inhibitor, single point] | –
4 | CCCCN(C(=O)/C=C/c1ccc(OC)cc1)C1CCS(=O)(=O)C1 (stereo unspecified) | inactive | –
5 | CCC(CC)c1nnc(NC(=O)CN2C(=O)NC3(CCCC3)C2=O)s1 | inactive | –
6 | Cc1cccc(-n2ncc(C(=O)NCc3ccc4c(c3)OCO4)c2C2CCN(C(=O)OC(C)(C)C)CC2)c1 | inconclusive [inhibitor, single point] | –
7 | Cc1ccc(C(=O)Oc2cccc(NC(=O)c3ccccc3)c2)cc1C | inconclusive [inhibitor, partial curve] | –
8 | CC(C)NC(=O)C1Cc2c(-c3ccccc3Oc3ccccc3)ccnc2O1 (stereo unspecified) | inconclusive [inhibitor, single point] | –
9 | O=[N+]([O-])c1cccc(-c2nc(-c3ccccc3)c(-c3cccs3)[nH]2)c1 | inconclusive [inhibitor, partial curve] | –
10 | CCOc1c(Br)ccc2c1sc1nc[nH]c(=O)c12 | inconclusive [inhibitor, single point] | –
11 | COc1ccc(CN2CCN(C(=O)c3cccs3)CC2)cc1 | inactive | –
12 | N#CC1=C(N)N(c2ccccc2)C(c2ccccc2)C1(C#N)C#N (stereo unspecified) | active: 14.6 µM | –
13 | CCCSc1nnc2n(-c3ccccc3OC)c(=O)c3c4c(sc3n12)CCC4 | inconclusive [inhibitor, single point] | –
14 | O=C(Nc1ccccc1F)c1ccc(CN2CCN(c3ccccc3)CC2)cc1 | inconclusive [inhibitor, partial curve, poor fit] | –
15 | Cc1sc2ncnc(NCc3cccnc3)c2c1C | inconclusive [inhibitor, single point] | –
16 | O=C(CSc1nc(Nc2ccc(F)c(F)c2)c2ccccc2n1)c1ccc(Cl)cc1 | inconclusive [inhibitor, single point] | –
17 | CCOc1ccc(NC(=O)CSc2nnc(CCNC(=O)c3ccc(OC)cc3)n2C)cc1 | inactive | –
18 | O=C1c2ccccc2NC2CCCCC12 (stereo unspecified) | active: 23.1 µM | –
19 | CC(=O)Oc1ccc(C#C/C=C2\c3ccccc3C(=O)N2c2ccccc2)cc1 | active: 20.6 µM | –
20 | CCOc1ncccc1C(=O)OCC(=O)c1ccc(F)cc1 | inconclusive [inhibitor, single point] | –
21 | COC(=O)[C@@]1(Sc2ccc(C)cc2)CC(=O)N(C(=O)C2CC2)[C@@H]1c1ccccc1 | – | inconclusive: -31.3% [inhibitor]
22 | CCOc1ccc(S(=O)(=O)Nc2ccc(C(=O)N/N=C(\C)c3ccc(-n4ccnc4)cc3)cc2)cc1 | inconclusive [inhibitor, partial curve, poor fit] | –
23 | CC(C)c1cc(N=O)cc(C(C)C)c1O | inconclusive [inhibitor, single point] | –

Row | SMILES | Potency | activity change, negative = growth inhibition
24 | CC(CNC(=O)CCS(=O)(=O)c1ccc2c(c1)NC(=O)CO2)c1ccccc1 (stereo unspecified) | inactive | –
25 | COc1ccc(C)cc1NC(=O)CSc1nnc(COc2ccc(C)cc2)n1Cc1ccco1 | inconclusive [inhibitor, single point] | –
26 | O=C(O)CCCCCN1C(=O)c2ccc(C(=O)O)cc2C1=O | inactive | –
27 | CCCCN(C)CCNC(=O)c1cc(-c2ccc(Cl)s2)nc2ccccc12 | active: 23.1 µM | –
28 | O=[N+]([O-])c1ccc2c(c1)C=C/C2=C\c1ccc(C=S)cc1 | active: 11.2 µM | –
29 | O=C(NCc1ccccc1)C1=C[C@@H](C2CCCCC2)C[C@@H](OCCCCO)O1 | inconclusive [inhibitor, partial curve] | –
30 | CCCCOC(=O)c1ccc(NC(=O)c2c(Cl)ccc(Cl)c2OC)cc1 | inconclusive [inhibitor, single point] | –
31 | CC(=O)Nc1cccc(N(C(=O)C2COc3ccccc3O2)C(C(=O)NC2CCCCC2)c2cn(C)nc2C)c1 (stereo unspecified) | inactive | –
32 | CCOc1ccccc1Nc1nc2c(S(=O)(=O)c3ccc(C)cc3)nnn2c2ccsc12 | inconclusive [inhibitor, full curve] | –
33 | O=C(NC1CCCCC1)C(c1ccccc1)N(C(=O)Cc1ccsc1)c1ccccc1 (stereo unspecified) | inactive | –
34 | Cc1cccc(/C(N)=N/OC(=O)N2c3ccccc3Sc3ccccc32)c1 | active: 20.6 µM | –
35 | CCCCc1c(C)c2ccc(OC)c(/C(C)=N\O)c2oc1=O | active: 18.4 µM | –
36 | CC(C)(C)C(=O)COC(=O)c1cc(-c2ccncc2)nc2ccccc12 | inactive | –
37 | CSCCOC(=O)C1=C(C)NC(=O)CC1c1ccccc1Cl (stereo unspecified) | inconclusive [inhibitor, single point] | –
38 | Cc1ccc(F)c(S(=O)(=O)NC(=O)C2(C)CCN2C(=O)C/C=C/c2ccccc2)c1 (stereo unspecified) | inactive | –
39 | O=C(NCc1nc(-c2ccccc2)no1)c1ccc(Br)o1 | inconclusive [inhibitor, single point] | –
40 | COc1ccc([C@H]2CC(=O)C=C(c3ccc4ccccc4c3)C2)cc1OC | active: 16.4 µM | –
41 | CCOC(=O)c1c(-c2ccccc2)csc1NC(=O)c1nc(SCC)ncc1Cl | inconclusive [inhibitor, single point] | –
42 | O=C(COc1ncnc2ccccc12)Nc1cccc(S(=O)(=O)N2CCOCC2)c1 | inactive | –
43 | Cc1ccc(-c2nc3scc(CCNS(=O)(=O)c4ccc(Oc5ccccc5)cc4)n3n2)cc1 | inconclusive [inhibitor, single point] | –
44 | Cn1c(=O)c2c(nc(SCc3nc(N)nc(N4CCCCC4)n3)n2C)n(C)c1=O | active: 23.1 µM | –
45 | CCCCn1nc(C(=O)Nc2ccccc2N2CCCC2)c2ccccc2c1=O | inconclusive [inhibitor, single point] | –
46 | CCN1CCn2c3c(c4cc(Br)ccc42)CCCC31 (stereo unspecified) | inconclusive [inhibitor, single point] | –
